# ± gives the standard deviation. Only a part is listed here, and it is no random draw.
# Tested on: MIWI (PIWIL1) piRISC loaded with L1MC piRNA (30 nt)
# Test: pre-steady-state target cleavage rate (min^-1); MIWI and MILI are mouse PIWI proteins and EfPiwi is from a freshwater sponge; tags in brackets are library labels; higher = faster piRNA-guided slicing of the target
# Details: guide: L1MC piRNA 5'p-UAACUAAAUACUAUGCAAGCUGUAGGUCCU; auxiliary factor: 500 nM mouse GTSF1
# Method in brief: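 A transcribed, DNA-blocked target RNA library (0.1 nM) and 1 nM active affinity-purified piRISC bearing one synthetic guide were incubated in HEPES–potassium acetate buffer at 33 °C for 0–8 or 0–960 min, either with or without 500 nM GTSF1 partner protein. Uncleaved targets were sequenced, normalised to depth and to weakly complementary targets, and pooled over three trials, with k3 capped at 0.0001 min^-1. The pre-steady-state cleavage rate was derived with a burst-and-steady-state fit.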
row,Sequence,pre-steady-state target cleavage rate
1,UCCUCCUACAGCUUGCAUAGUAAAAACAAA,0.16 ± 0.038
2,UCCUGGAUGUCCUUGCAUAGUAUUUUGUAA,0.0108 ± 0.006
3,UCCUGGAUGUCGAACCAUAGUAUUUAGUGUA,< 0.0001
4,UCCUGGAUCAGCUUCCAUAGUAAUUAGUUA,0.00529 ± 0.0046
5,UCCUGGAUGAGCUUGCAUAGUUAUUAGUAA,0.00855 ± 0.005
6,UCGACCUACAGCUUGCAUAGUAAAAUCAAA,0.159 ± 0.039
7,UCGACCUUGAGCUUGCAUAGUAUUUUCAAA,0.156 ± 0.026
8,UCCUGGAUGUCGAACGAUAGUAUUUAGUUU [g2:g14:cont:t1U],< 0.0001
9,UCCUGGAACAGCUAGCAUAGUAUUUUCAAA,0.102 ± 0.026
10,UCCACCUACUCGUUGCAUAGUAUUUUCAAA,0.129 ± 0.02
11,UCCUCCUACAGCUUGCAUAGUAUUAAGAAA,0.301 ± 0.043
12,UCCUGGAUCAGCAAGCAUAGUAUUUAGAAA,0.0101 ± 0.0047
13,AGGACCUACAGCUUGCAUUAGUAUUUAGUUA,0.147 ± 0.044
14,UCCACCUACAGCUAGCAUAGUAUUUUCAAA,0.305 ± 0.039
15,UCGACCUACAGCUUGGUAAGUAUUUAGUAA,0.0361 ± 0.015

# From the supplement of paper PMC10338343
